Results: the RNAGym collection of RNA variant scans (doi:10.1073/pnas.2313332121)
Variants at the background level are over-represented here.

B1: TPR 5TU (parent)
chain: GGAUCUUCUCGAUCUAACAAAAAAGACAAAUCUGCCACAAAGCUUGAGAGCAUCUUCGGAUGCAGAGGCGGCAGCCUUCGGUGGCGCGAUAGCGCCAACGUUCUCAACUAUGACACGCAAAACGCGUGCUCCGUUGAAUGGAGUUUAUCAUG

Variants of: B1
Assay: polymerase ribozyme fitness, log enrichment relative to wild type (log ratio); higher = more active; in vitro selection for triplet polymerase activity
Outline: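 Each subunit of a heterodimeric triplet polymerase ribozyme was mutagenized into a library by PCR, transcribed, and subjected to one round of in vitro selection, run in triplicate. Libraries were annealed with a biotinylated primer, the partner subunit and triplets, incubated frozen at −7 °C, and extended constructs were gel-excised, captured on streptavidin beads and recovered by RT-PCR. Input and output libraries were sequenced on Illumina, keeping genotypes with ≥10 input reads and ≥1 read per output. Fitness is log base 2 of genotype enrichment divided by wild-type enrichment, from inverse-variance-weighted replicate averages.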
With G50C C51A G74U C85U G126A the “polymerase ribozyme fitness (log ratio)” value was ≤ -4.2.
For G50C C85A A91C G133C, the “polymerase ribozyme fitness (log ratio)” value was ≤ -4.2.
With C51A U77C G84A C96U the “polymerase ribozyme fitness (log ratio)” value was ≤ -4.2.
With A52G G58U G74C A147C the “polymerase ribozyme fitness (log ratio)” value was ≤ -4.2.
With G50A G128C the “polymerase ribozyme fitness (log ratio)” value was ≤ -4.2.
For A52G G84A G136A, the “polymerase ribozyme fitness (log ratio)” value was -0.512.
With A52U C75U C87A C105G A137G U145C the “polymerase ribozyme fitness (log ratio)” value was ≤ -4.2.
In the case of G50A G92A A106G, the “polymerase ribozyme fitness (log ratio)” value is reported as ≤ -4.2.
For G50C C54U G86A C108U, the “polymerase ribozyme fitness (log ratio)” value was ≤ -4.2.
With A52G U78C the “polymerase ribozyme fitness (log ratio)” value was -0.764.
In the case of A52G G83U U101A A115U, the “polymerase ribozyme fitness (log ratio)” value is reported as -3.39.
With G50A G86A C132U G143C C149G the “polymerase ribozyme fitness (log ratio)” value was ≤ -4.2.
In the case of G50C U53A U56A A89G C108G A119U, the “polymerase ribozyme fitness (log ratio)” value is reported as ≤ -4.2.
In the case of A52C C57U C85U U135A, the “polymerase ribozyme fitness (log ratio)” value is reported as -1.62.
For G50C C114U, the “polymerase ribozyme fitness (log ratio)” value was ≤ -4.2.
In the case of C51U A60G C87A, the “polymerase ribozyme fitness (log ratio)” value is reported as ≤ -4.2.
With C51A G70A G71A U78G A91U G117A U134G U135A the “polymerase ribozyme fitness (log ratio)” value was ≤ -4.2.
For A52G U53A C75G C85U C131A, the “polymerase ribozyme fitness (log ratio)” value was ≤ -4.2.
With A52G G74C C96U U144G the “polymerase ribozyme fitness (log ratio)” value was ≤ -4.2.
With G50A G68U G74U C85U A120U G126A the “polymerase ribozyme fitness (log ratio)” value was ≤ -4.2.
In the case of A52C G80C, the “polymerase ribozyme fitness (log ratio)” value is reported as ≤ -4.2.
For A52G G83C C105A, the “polymerase ribozyme fitness (log ratio)” value was -2.55.
With C51G G70C G84U U146G A150C the “polymerase ribozyme fitness (log ratio)” value was ≤ -4.2.
For C51U G92A G133U, the “polymerase ribozyme fitness (log ratio)” value was ≤ -4.2.
For C51U G58U G112C, the “polymerase ribozyme fitness (log ratio)” value was ≤ -4.2.
In the case of A52C G88C C103A, the “polymerase ribozyme fitness (log ratio)” value is reported as ≤ -4.2.
With G50U G88C U102G C132G G136U U148C the “polymerase ribozyme fitness (log ratio)” value was ≤ -4.2.
With A52U A89G the “polymerase ribozyme fitness (log ratio)” value was -3.14.
For G50A G68A C87G C93U A97U, the “polymerase ribozyme fitness (log ratio)” value was ≤ -4.2.
For G50C C95U, the “polymerase ribozyme fitness (log ratio)” value was -3.47.
In the case of G50A G58C C76U C85G G141U, the “polymerase ribozyme fitness (log ratio)” value is reported as -4.1.
In the case of G50C G71U C85A G124U, the “polymerase ribozyme fitness (log ratio)” value is reported as ≤ -4.2.
In the case of C51U A52U G74C A113C C131A, the “polymerase ribozyme fitness (log ratio)” value is reported as ≤ -4.2.
With C51U G88C the “polymerase ribozyme fitness (log ratio)” value was -4.09.
For G50A C93A C116A A122G C129G, the “polymerase ribozyme fitness (log ratio)” value was ≤ -4.2.
For G50U C79G A98U C99G, the “polymerase ribozyme fitness (log ratio)” value was ≤ -4.2.
With C51A C57A G67U G68A C85G C87A U139C G141C A142U the “polymerase ribozyme fitness (log ratio)” value was ≤ -4.2.
With A52C A91U C93A G133C the “polymerase ribozyme fitness (log ratio)” value was ≤ -4.2.
With G50C C51U C72A A121U the “polymerase ribozyme fitness (log ratio)” value was ≤ -4.2.
In the case of G50C G59C C95G, the “polymerase ribozyme fitness (log ratio)” value is reported as -3.67.
In the case of A52C A98U, the “polymerase ribozyme fitness (log ratio)” value is reported as -0.983.
In the case of G50C C63G C96A C118U A119C, the “polymerase ribozyme fitness (log ratio)” value is reported as -0.626.
For G50C C96A, the “polymerase ribozyme fitness (log ratio)” value was -3.01.
With C51U C87A the “polymerase ribozyme fitness (log ratio)” value was ≤ -4.2.
With A52U C76U G140C the “polymerase ribozyme fitness (log ratio)” value was ≤ -4.2.
For A52G C63U C93U, the “polymerase ribozyme fitness (log ratio)” value was -1.7.
With A52G U56G C85A C131U A137G the “polymerase ribozyme fitness (log ratio)” value was -3.95.
For G50A G83A A97G, the “polymerase ribozyme fitness (log ratio)” value was -0.838.
For A52U C87A C93G, the “polymerase ribozyme fitness (log ratio)” value was ≤ -4.2.
For A52U C54U G84A C85A G152U, the “polymerase ribozyme fitness (log ratio)” value was ≤ -4.2.
For C51U U56A C87A C95U C118A U139C, the “polymerase ribozyme fitness (log ratio)” value was ≤ -4.2.
For C51G A60U U78A A113G G128A, the “polymerase ribozyme fitness (log ratio)” value was ≤ -4.2.
For C51G A52C A107U A137C, the “polymerase ribozyme fitness (log ratio)” value was ≤ -4.2.
For C51A G74C U77A C85G G100U U151C, the “polymerase ribozyme fitness (log ratio)” value was ≤ -4.2.
For A52C A89U C95U A110G G126U A142G U146A, the “polymerase ribozyme fitness (log ratio)” value was ≤ -4.2.
With A52C U56A G58A G67A G94A A97G the “polymerase ribozyme fitness (log ratio)” value was ≤ -4.2.
With A52G A66C G88U C93G C95A G112A G133U G141U U146A the “polymerase ribozyme fitness (log ratio)” value was ≤ -4.2.
With A52U A60G C108U A150C the “polymerase ribozyme fitness (log ratio)” value was ≤ -4.2.
In the case of G50A G88C C95U C99U G128A, the “polymerase ribozyme fitness (log ratio)” value is reported as ≤ -4.2.
With A52G A107U A137C U144C the “polymerase ribozyme fitness (log ratio)” value was ≤ -4.2.
In the case of C51A G86C A89U A113U G126A G141U, the “polymerase ribozyme fitness (log ratio)” value is reported as ≤ -4.2.
In the case of G50U U53C U56A G70A G84C A91C A119C, the “polymerase ribozyme fitness (log ratio)” value is reported as ≤ -4.2.
In the case of A52G G136C A137C C149U U151G, the “polymerase ribozyme fitness (log ratio)” value is reported as ≤ -4.2.
For G50C G68U, the “polymerase ribozyme fitness (log ratio)” value was ≤ -4.2.
In the case of G50C C51A G74A C87A, the “polymerase ribozyme fitness (log ratio)” value is reported as ≤ -4.2.
In the case of A52C C85A A106U C116A C118U, the “polymerase ribozyme fitness (log ratio)” value is reported as ≤ -4.2.
With G50U A60U C75U C93A C118A the “polymerase ribozyme fitness (log ratio)” value was ≤ -4.2.
With C51G U53A G141U the “polymerase ribozyme fitness (log ratio)” value was ≤ -4.2.
For A52C G58A A147U, the “polymerase ribozyme fitness (log ratio)” value was -0.233.
With G50A C85U C96U C105U G141A the “polymerase ribozyme fitness (log ratio)” value was -1.94.
With G50A C63A G67A G80A A142G the “polymerase ribozyme fitness (log ratio)” value was ≤ -4.2.
In the case of G50C C93G, the “polymerase ribozyme fitness (log ratio)” value is reported as ≤ -4.2.
In the case of G50A U55G G58C C69A C93A C95G A120G G126U G133A, the “polymerase ribozyme fitness (log ratio)” value is reported as ≤ -4.2.
With A52G A73G C85U the “polymerase ribozyme fitness (log ratio)” value was -0.163.
In the case of G50U A52C A64C G92C, the “polymerase ribozyme fitness (log ratio)” value is reported as ≤ -4.2.
With G50U G94A the “polymerase ribozyme fitness (log ratio)” value was -0.00242.
In the case of A52C C85A A121G, the “polymerase ribozyme fitness (log ratio)” value is reported as -1.8.
In the case of G50A C93G U148C, the “polymerase ribozyme fitness (log ratio)” value is reported as ≤ -4.2.
In the case of A52C G59U C75U G84U C108A U109G U139A U145G, the “polymerase ribozyme fitness (log ratio)” value is reported as ≤ -4.2.
In the case of A52C C57A A66C A97G G141U, the “polymerase ribozyme fitness (log ratio)” value is reported as ≤ -4.2.
For C51A U55A C85U U102G A150G, the “polymerase ribozyme fitness (log ratio)” value was ≤ -4.2.
With C51U U82A C95U the “polymerase ribozyme fitness (log ratio)” value was -1.29.
In the case of G50C U55C C72A, the “polymerase ribozyme fitness (log ratio)” value is reported as ≤ -4.2.
